In all, about 94,000 compounds went through this assay and about 6,200 (6.6%) were called active. The inconclusive results got no clear call from the source; some entries with a clear call stand among them for comparison. Calls come from the whole dose curve; as a rule, active = well fitted inhibition curve with a large enough effect; inconclusive = small, poorly fitted or top-dose-only effect; inactive = flat fitted curve, though single readings scatter. Where the call is inconclusive, the potency comes from a doubtful curve fit.
assay: Cytotoxic Profiling in HEK 293 Cell Line of Diverse Libraries Using Quantitative High-Throughput Screening; conditions: HEK 293 viability, ATP luminescence (CellTiter-Glo), 48-72 h; activity change, negative = cytotoxicity: at 115 µM (top of the series) unless noted; series mostly up to 115 µM; note: nearly all actives have a fitted effect of over 60% in size
How it was run: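 CellTiter-Glo luminescence (cellular ATP) was read after 48 or 72 hr of compound exposure at 37 degree Celsius. Cells were HEK 293 plated at 250 cells/well.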
% is set by controls: 0 for no effect and ±100 for the full control effect; potency is the fitted concentration of half-maximal effect; tags give direction and shape of the fitted curve.

| SMILES | Potency | activity change, negative = cytotoxicity | outcome |
| --- | --- | --- | --- |
| O=C(NCC(F)F)[C@@H]1CCCN1c1nccc(Nc2ccccc2Cl)n1 | inconclusive: 44.7 µM [inhibitor, partial curve, poor fit] |  |  |
| COc1ccc(C(=O)N2CCC3(CC2)NCCc2c3[nH]c3ccccc23)cc1 | active: 79.4 µM |  |  |
| CC[C@H]1CN(S(=O)(=O)c2ccc(OC)cc2)CC[C@H]1CC(=O)Nc1ccccc1 | inconclusive: 44.7 µM [inhibitor, full curve, poor fit] |  |  |
| COC(=O)C(NC(=O)N1CCc2nc3cc(-c4ccccc4)[nH]n3c(=O)c2C1)C(C)C (stereo not drawn) | inconclusive: 89.1 µM [inhibitor, single point] |  |  |
| C[C@H]1[C@@H]2[C@@H](O)C([C@H](C)C(=O)N(C)Cc3cccnc3)CC[C@@]2(C)CC[C@@H]1NC(=O)C1CCCCC1 (stereo partly drawn) |  | inactive: -6.29% |  |
| COC(=O)C1=C(C)N=C2SC=C(CC(=O)N3CCCC3)N2C1c1cc(OC)ccc1OC (stereo not drawn) | inconclusive: 89.1 µM [inhibitor, single point] |  |  |
| CCc1c(-c2nc(C3CCOC3)no2)[nH]c2ccccc12 (stereo not drawn) | inconclusive: 44.7 µM [inhibitor, partial curve, poor fit] |  |  |
| CCOc1ccc(C(=O)N2CCC(Cc3nc(-c4ccc(F)cc4)no3)CC2)cc1OCC | inconclusive: 44.7 µM [inhibitor, partial curve, poor fit] |  |  |
| COc1ccccc1/C=C/CN1CCC(n2cc(CN(C)C)nn2)CC1 | inconclusive: 44.7 µM [inhibitor, full curve, poor fit] |  |  |
| CNC(=O)c1cc(C)nc2onc(C3CCCN(C(=O)c4ccccc4Cl)C3)c12 (stereo not drawn) |  | inactive: 0.939% |  |
| Cc1cccc(-c2cnc3[nH]cc(CC(=O)N4CCOCC4)c3c2)c1 | inconclusive: 89.1 µM [inhibitor, partial curve] |  |  |
| O=C(Cn1c(=O)c2c(n1Cc1ccccc1)CN(Cc1ccccc1)CC2)NCc1cccc(F)c1 | inconclusive: 79.4 µM [inhibitor, partial curve] |  |  |
| CC(C)Oc1cccc(-c2cccc(COc3cnc4c(ccn4CC(=O)O)c3)c2)c1 | inconclusive: 126 µM [inhibitor, single point] |  |  |
| COC(=O)[C@@H]1Cc2c([nH]c3ccccc23)[C@H]2C[C@H](NCCNC(C)=O)C[C@@H](c3ccccc3)N21 | active: 89.1 µM |  |  |
| O=C(NCCc1ccc(Cl)cc1)C1CCCN(Cc2cccc(-c3ccsc3)c2)C1 (stereo not drawn) | active: 22.4 µM |  |  |
| CC(C)CS(=O)(=O)Nc1ccc([C@H]2OCC(=O)N(Cc3ccc(F)cc3)[C@@H]2CO)cc1 | inconclusive: 56.2 µM [inhibitor, partial curve, poor fit] |  |  |
| Cc1ccc(C(=O)NCCn2cccc2-c2nc(-c3ccc4c(c3)OCO4)no2)cn1 | active: 28.2 µM |  |  |
| CN(c1cc(=O)c2ccnc(-c3cccc(CO)c3)c2o1)C1CCOCC1 |  | inactive: -8.87% [at 172 µM] |  |
| COc1ccccc1NC(=O)c1c(C)oc2ccn(Cc3ccc(F)cc3)c(=O)c12 | inconclusive: 22.4 µM [inhibitor, full curve, poor fit] |  |  |
| CCc1ccccc1S(=O)(=O)N1CCC(n2cnnc2C)CC1 |  | inactive: 2.55% |  |
| CC(C)c1nc2ccccc2n1CC(=O)N1CC[C@](C)(O)[C@@H](O)C1 |  | inactive: -1.9% |  |
| O=C(Nc1ccc(Cl)cc1)C1=NO[C@@H]2CN(c3ccccn3)C[C@H]12 | inconclusive: 70.8 µM [inhibitor, partial curve] |  |  |

| SMILES | Potency | activity change, negative = cytotoxicity | outcome |
| --- | --- | --- | --- |
| CCc1ccc(N2CC(c3noc(-c4ccncc4)n3)CC2=O)cc1 (stereo not drawn) | inconclusive: 100 µM [inhibitor, single point] |  |  |
| Cc1ccc(CN2CC[C@@H]3[C@H]2C(=O)NC[C@H](CCC(=O)NCc2cccs2)N3C)cc1 |  | inactive: -20.9% |  |
| COC1CN(c2cccc(F)c2)C12CCN(C(=O)CC(C)C)CC2 (stereo not drawn) | inconclusive: 89.1 µM [inhibitor, single point] |  |  |
| O=C(Cc1ccccc1)N1CCNc2cnc(Nc3ccccc3)nc2C1 | inconclusive: 100 µM [inhibitor, partial curve] |  |  |
| CC1=NS(=O)(=O)N(Cc2ccccc2)C=C1C(=O)OCc1c(C)noc1C | inconclusive: 25.1 µM [inhibitor, full curve] |  |  |
| CCc1ccc(CN2CCC3(Cc4ccccc4CNC3=O)C2)s1 (stereo not drawn) | inconclusive: 56.2 µM [inhibitor, partial curve, poor fit] |  |  |
| O=C(N[C@@H]1CN(Cc2ccc(CO)o2)CCC[C@H]1O)c1ccc(OCc2ccccc2)cc1 | inconclusive: 50.1 µM [inhibitor, partial curve, poor fit] |  |  |
| COc1ccc(-c2nnc(C[C@@H]3C[C@@H](C(C)C)[C@H](CN4CCN(c5ncccn5)CC4)C=C3C)o2)cc1 | active: 39.8 µM |  |  |
| Cc1cccc(CC(=O)NCCC2CCN(C(=O)Nc3cc(F)cc(F)c3)CC2)c1 | inconclusive: 89.1 µM [inhibitor, single point] |  |  |
| CCN1CCN(c2nccc(Cl)n2)C(=O)C1 |  | inactive: -1.3% [at 172 µM] |  |
| COCc1nnc2n1CCC(NC(=O)CCc1c(C)nn(C)c1C)CC2 (stereo not drawn) |  | inactive: -4.91% |  |
| Cc1ncsc1CN1CC(Oc2cccc(C(=O)NCC3CC3)c2)C1 | inconclusive: 89.1 µM [inhibitor, single point] |  |  |
| Cn1ncc(N2CCC(CNC(=O)c3ccccc3-n3cncn3)C2)cc1=O (stereo not drawn) |  | inactive: -15.5% |  |
| CCc1nc(-c2c3n(c(=O)n(Cc4cccc(F)c4)c2=O)CCCC3)no1 |  | inactive: -5.68% |  |
| COc1cccc(C(=O)NC2CCN(c3ccc4nnc(-c5ccccc5)n4n3)C2)c1 (stereo not drawn) |  | inactive: -7.56% |  |
| CCC(c1cccs1)N1C(=O)[C@H]2CN(Cc3cccnc3)C[C@H]2C1=O (stereo partly drawn) | inconclusive: 79.4 µM [inhibitor, partial curve] |  |  |
| Cc1nc(CN2C(=O)OC3(CCN(Cc4c[nH]c5ccccc45)CC3)C2(C)c2ccccc2)cs1 (stereo not drawn) | inconclusive: 20 µM [inhibitor, full curve, poor fit] |  |  |
| CCc1nc(-c2c3n(c(=O)n(Cc4cccc(OC)c4)c2=O)CCCC3)no1 |  | inactive: -0.81% |  |
| COc1ccc(CCN2C(=O)O[C@@H]3CN(C(=O)C4CCC4)C[C@@H]32)cc1 |  |  | inactive |
| Cc1cc(S(=O)(=O)N(C)CC2CCOC2)ccc1Cl (stereo not drawn) |  | inactive: 7.58% |  |
| CC(C)c1nc2c(c(-c3ccc(Cl)cc3)n1)CCN(C(=O)c1ccccc1F)CC2 | inconclusive: 79.4 µM [inhibitor, partial curve, poor fit] |  |  |

Source: PubChem BioAssay AID1345083 (National Center for Advancing Translational Sciences (NCATS), 2018)
